Experimental findings from ChEMBL document CHEMBL4888484, “Replenishing the malaria drug discovery pipeline: Screening and hit evaluation of the MMV Hit Generation Library 1 (HGL1) against asexual blood stage Plasmodium falciparum ,using a nano luciferase reporter read-out” (2022) are described below.

The whole screen tested about 150,000 compounds, of which about 540 (0.36%) showed an effect of 50% or more. The list shows a part of the results.

The assay has as its system Plasmodium falciparum. Kind of assay: Primary screen in NF54 nanoGlo assay, in single point, at 2uM, 72h; a lower Z score goes with more inhibition. The format is functional, Erythrocyte. The note with it: timepoint 72 hour.
Consider `Cc1ccc([C@H]2N(c3ccc(Cl)c(Cl)c3)C(=O)[C@@H]3CCCN32)o1`, for which the “% Inhibition” value is on record as -3% and the Z score came out at 0.39.

As to `Cc1cc(NC(=O)c2ccc(F)c(Cl)c2)nc(=O)[nH]1`, the “% Inhibition” value was -6% and the Z score is recorded as 0.57.

Take `CCc1nsc(N2CC3CCCC3C2)n1` (stereo unspecified): the “% Inhibition” value is recorded as -2% and the Z score is given as 0.31.

For the molecule `CC(=O)N[C@@H]1CN(C(=O)c2c[nH]nc2-c2ccc(C)cc2C)C[C@H]1CO`, the “% Inhibition” value is on record as -7% and the Z score turned out to be 1.12.

Turning to `CC1CN(c2ccc(C#N)c(N)n2)CC(C2CC2)O1` (stereo unspecified), the “% Inhibition” value is -3% and the Z score is listed as 0.56.

On to `CC(C)(CO)NC(=O)OCc1ccccc1`, for which the “% Inhibition” value was -10% and the Z score is given as 1.31.

As to `O=C(NCCCOC1CCCC1)c1ccc2nc(C(F)(F)F)cn2c1`, the “% Inhibition” value is recorded as -11% and the Z score worked out at 1.72.

`CC(C)=CCN1C(=O)[C@@H]2CC[C@H]1CN(C(=O)c1ccc3[nH]nnc3c1)C2`: the “% Inhibition” value was -2% and the Z score came to 0.48.

With `Cc1ccc(CN(Cc2ccccn2)C(=O)[C@@H]2CCC(=O)NC(=O)N2)s1`, the “% Inhibition” value is 1% and the Z score is given as -0.12.

Take `CCOc1ccccc1CN1CCC(CC2CC2)(NS(C)(=O)=O)CC1`: the “% Inhibition” value is reported as -4% and the Z score was found to be 0.77.

With `CCCCNC(=O)NCCc1c[nH]c2ncccc12`, the “% Inhibition” value turned out to be 0% and the Z score was -0.04.

For `CC(C)c1ccc([C@H](C)NC(=O)C(=O)Nc2cnc3ccccc3c2)cc1`, the “% Inhibition” value is on record as -4% and the Z score amounted to 0.59.

For the molecule `Oc1cc(-c2ccc(F)cc2)nn1-c1nc2ccccc2[nH]1`, the “% Inhibition” value was 36% and the Z score is listed as -4.09.

`CNC(=O)NC(=O)CNC(C)(C)Cc1ccc(C(F)(F)F)cc1`: the “% Inhibition” value is listed as -6% and the Z score was determined as 0.72.

With `CCCC1(CCC)NC(=O)N(CC(=O)Nc2ccc3c(c2)OCCO3)C1=O`, the “% Inhibition” value is -18% and the Z score was determined as 3.18.

In the case of `CC(C)(C)C(=O)NCc1ccc(-c2ccoc2)o1`, the “% Inhibition” value is reported as 6% and the Z score is reported as -0.82.

On to `COc1ccc(C(=O)N2CC(S(=O)(=O)N3CCc4ccccc43)C2)cn1`, for which the “% Inhibition” value is on record as -10% and the Z score came out at 1.27.

In the case of `O=C(O)C1C2C=CC(C2)C1C(=O)Nc1nc2ccccc2s1` (stereo unspecified), the “% Inhibition” value is -20% and the Z score turned out to be 2.56.

For `CC(C)NC(=O)N(Cc1c(C(C)C)nn(-c2ccccc2)c1Oc1ccccc1F)CC1CC1`, the “% Inhibition” value is -14% and the Z score stood at 1.3.

For `COc1cc(C)c(S(=O)(=O)N2CCOCC(F)(F)C2)cc1Cl`, the “% Inhibition” value is recorded as -1% and the Z score is on record as 0.1.

As to `CC(C)(C)OC(=O)N1CC(NC(=O)c2ccoc2C2CC2)(C(N)=O)C1`, the “% Inhibition” value is reported as -2% and the Z score is 0.22.

Regarding `O=C(NCc1cccnc1)c1coc(CN(Cc2ccc(F)cc2)Cc2ccc(Cl)cc2Cl)n1`, the “% Inhibition” value was -33% and the Z score is 2.9.

`NC(=O)Cc1nc(Cn2cnnn2)n(-c2ccc3c(c2)OCO3)n1`: the “% Inhibition” value amounted to 8% and the Z score is listed as -1.27.

One may read the % Inhibition as the drop in the measured response relative to a control, in per cent.
